Here are results for 153 variants from a collection of fitness landscapes (doi:10.1016/j.celrep.2020.107928).

The labels stand for the following.
B1: Caulobacter ParB omega fusion; a variant is named by its letters at X, in order, B8GW30 (parent)
chain: MESVVVGEPGMSEGRRGLGRGLSALLGEVDAAPAQAPGEQLGGSREAPIEILQRNPDQPRRTFREEDLEDLSNSIREKGVLQPILVRPSPDTAGEYQIVAGERAWRAAQRAGLKTVPIMVRELDDLAVLEIGIIENVQRADLNVLEEALSYKVLMEKFERTQENIAQTIGKSXSHVANXMRLLXLPDEVQSYLVSGELTAXHARAIAAAADPVALAKQIIEGGLSVRETEALARKAPNLSAGKSKGGRPPRVKDTDTQALESDLSSVLGLDVSIDHRGSTGTLTITYATLEQLDDLCNRLTRGI

Over roughly 81,000 sequences, “one-hybrid fitness for binding parS DNA” has its median near -0.17; the highest 2% begin near 0.51. The list shows a part of the results.

In the test the parent is B1. The experiment in a line: one-hybrid fitness for binding parS DNA (scaled: cognate 1, non-cognate 0); higher = stronger binding. To be noted: with parS DNA site. In a few lines: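 Caulobacter ParB libraries with four specificity codons randomised were screened by bacterial one-hybrid selection in the E. coli USO strain, using a HIS3 reporter whose site lies 19 bp from the promoter. Selection ran for 48 hours at 37°C on M9 lacking histidine, with 0.1 mM IPTG and 5 mM 3-AT. Plasmids were Illumina-sequenced before and after selection, three replicate libraries were pooled, and variants with under 10 reads were dropped. Fitness is the log change in each variant's read ratio to wild type, rescaled against the cognate and non-cognate sites.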
In the case of AVEL, the “one-hybrid fitness for binding parS DNA” value is ≤ 0.2.
The same measure for QLYK: ≤ 0.2; for GRHT: ≤ 0.2.
RQVE: the “one-hybrid fitness for binding parS DNA” value was ≤ 0.2.
The same measure for VSIA: ≤ 0.2.
Turning to LTGQ, the “one-hybrid fitness for binding parS DNA” value is ≤ 0.2.
On to WCLP, for which the “one-hybrid fitness for binding parS DNA” value was ≤ 0.2.
With QPED, the “one-hybrid fitness for binding parS DNA” value was ≤ 0.2.
For the variant HESP, the “one-hybrid fitness for binding parS DNA” value was ≤ 0.2.
As to TVHF, the “one-hybrid fitness for binding parS DNA” value was ≤ 0.2.
As for PWCE, the “one-hybrid fitness for binding parS DNA” value is ≤ 0.2.
In the case of DGGG, the “one-hybrid fitness for binding parS DNA” value is ≤ 0.2.
The figure for RIPW is ≤ 0.2; for FFAR it is ≤ 0.2; for VHIR it is ≤ 0.2.
The same measure for VYIR: ≤ 0.2; for VTVK: ≤ 0.2.
The figure for MMRL is ≤ 0.2; for FHQS it is ≤ 0.2.
Regarding RDKA, the “one-hybrid fitness for binding parS DNA” value is ≤ 0.2.
The figure for PRPS is ≤ 0.2; for KYNR it is ≤ 0.2; for QSVH it is ≤ 0.2.
On to FYPI, for which the “one-hybrid fitness for binding parS DNA” value was ≤ 0.2.
As to LIIQ, the “one-hybrid fitness for binding parS DNA” value was ≤ 0.2.
The figure for GKPR is ≤ 0.2; for FTAC it is ≤ 0.2.
The figure for PHNM is ≤ 0.2; for QRDI it is ≤ 0.2; for FSQL it is ≤ 0.2.
As to TMGG, the “one-hybrid fitness for binding parS DNA” value was ≤ 0.2.
Take HLIM: the “one-hybrid fitness for binding parS DNA” value was ≤ 0.2.
Turning to QSFC, the “one-hybrid fitness for binding parS DNA” value is ≤ 0.2.
The same measure for LAKE: ≤ 0.2.
The same measure for LRTK: ≤ 0.2.
The same measure for TPKT: ≤ 0.2; for QWKA: ≤ 0.2.
On to KISG, for which the “one-hybrid fitness for binding parS DNA” value was ≤ 0.2.
As to VAKS, the “one-hybrid fitness for binding parS DNA” value is ≤ 0.2.
The same measure for QWRI: ≤ 0.2; for VWYL: ≤ 0.2; for SIHK: ≤ 0.2.
The same measure for MRSL: ≤ 0.2.
Turning to QSTG, the “one-hybrid fitness for binding parS DNA” value is ≤ 0.2.
In the case of AYGG, the “one-hybrid fitness for binding parS DNA” value was ≤ 0.2.
Regarding QYEY, the “one-hybrid fitness for binding parS DNA” value is ≤ 0.2.
The same measure for RIVA: 0.585.
The figure for PPRK is ≤ 0.2; for CHSS it is ≤ 0.2.
The figure for NKRG is ≤ 0.2.
Turning to MGAE, the “one-hybrid fitness for binding parS DNA” value was ≤ 0.2.
The figure for TAVK is ≤ 0.2; for DHPH it is ≤ 0.2.
As to SIRT, the “one-hybrid fitness for binding parS DNA” value was ≤ 0.2.
The same measure for PSLM: ≤ 0.2; for LHMG: ≤ 0.2.
The figure for KTDR is ≤ 0.2; for QFPL it is ≤ 0.2.
The figure for GLAL is ≤ 0.2.
For the variant CMNG, the “one-hybrid fitness for binding parS DNA” value was ≤ 0.2.
With VSMR, the “one-hybrid fitness for binding parS DNA” value was ≤ 0.2.
The same measure for LAKV: ≤ 0.2.
Regarding IRLS, the “one-hybrid fitness for binding parS DNA” value was ≤ 0.2.
As for TTII, the “one-hybrid fitness for binding parS DNA” value was ≤ 0.2.
For the variant VSEK, the “one-hybrid fitness for binding parS DNA” value is ≤ 0.2.
With PHDR, the “one-hybrid fitness for binding parS DNA” value was ≤ 0.2.
The same measure for SLIL: ≤ 0.2; for ATSQ: ≤ 0.2.
With RSFI, the “one-hybrid fitness for binding parS DNA” value was ≤ 0.2.
The figure for WEEG is ≤ 0.2; for IRSL it is ≤ 0.2; for ARHT it is ≤ 0.2.
The same measure for VIQG: ≤ 0.2; for RTYT: 0.952.
The figure for NKNY is ≤ 0.2; for TQRR it is ≤ 0.2.
As for VPTG, the “one-hybrid fitness for binding parS DNA” value was ≤ 0.2.
The same measure for MATV: ≤ 0.2.
Consider MYRT, for which the “one-hybrid fitness for binding parS DNA” value was ≤ 0.2.
The figure for VTRR is ≤ 0.2.
The same measure for GDRC: ≤ 0.2; for PGYA: ≤ 0.2; for FCSY: ≤ 0.2.
Take GRTL: the “one-hybrid fitness for binding parS DNA” value is ≤ 0.2.
As to HQMT, the “one-hybrid fitness for binding parS DNA” value is ≤ 0.2.
As for ADAR, the “one-hybrid fitness for binding parS DNA” value was ≤ 0.2.
The same measure for WSQK: ≤ 0.2; for LSHF: ≤ 0.2.
Turning to WWGG, the “one-hybrid fitness for binding parS DNA” value is ≤ 0.2.
The same measure for YGLN: ≤ 0.2; for QQPT: ≤ 0.2; for IRPT: ≤ 0.2.
The same measure for ITAK: ≤ 0.2; for RLSQ: ≤ 0.2.
The figure for ACLR is ≤ 0.2; for LIQN it is ≤ 0.2.
Turning to TSHC, the “one-hybrid fitness for binding parS DNA” value was ≤ 0.2.
The figure for TYPG is ≤ 0.2; for HLHI it is ≤ 0.2.
The figure for LAFH is ≤ 0.2; for KRLF it is ≤ 0.2.
The figure for RATK is ≤ 0.2.
For the variant EVRP, the “one-hybrid fitness for binding parS DNA” value is ≤ 0.2.
PLTT: the “one-hybrid fitness for binding parS DNA” value was ≤ 0.2.
The same measure for FGRM: ≤ 0.2.
NSPG: the “one-hybrid fitness for binding parS DNA” value is ≤ 0.2.
Turning to NLVK, the “one-hybrid fitness for binding parS DNA” value was ≤ 0.2.
As to VAGF, the “one-hybrid fitness for binding parS DNA” value was ≤ 0.2.
On to KHTL, for which the “one-hybrid fitness for binding parS DNA” value was ≤ 0.2.
For DREY, the “one-hybrid fitness for binding parS DNA” value was ≤ 0.2.
The figure for SDGR is ≤ 0.2; for GDGY it is ≤ 0.2; for NTEK it is ≤ 0.2.
The same measure for AGPG: ≤ 0.2; for HLHR: ≤ 0.2; for AQDT: ≤ 0.2.
As for LTAM, the “one-hybrid fitness for binding parS DNA” value was ≤ 0.2.
The same measure for MIYG: ≤ 0.2; for TRRW: ≤ 0.2.
The same measure for RLVW: 0.258; for HRNS: 0.362.
The figure for VAWE is ≤ 0.2; for VLNM it is ≤ 0.2; for QKAF it is ≤ 0.2.
Take HEQS: the “one-hybrid fitness for binding parS DNA” value was ≤ 0.2.
The same measure for VIAM: ≤ 0.2; for PPHE: ≤ 0.2; for NAAG: ≤ 0.2.
Take LFVP: the “one-hybrid fitness for binding parS DNA” value was ≤ 0.2.
The figure for EESN is ≤ 0.2; for HEPT it is ≤ 0.2; for AACT it is ≤ 0.2.
For the variant QALA, the “one-hybrid fitness for binding parS DNA” value is ≤ 0.2.
YTKK: the “one-hybrid fitness for binding parS DNA” value was ≤ 0.2.
Consider LIWD, for which the “one-hybrid fitness for binding parS DNA” value is ≤ 0.2.
The same measure for LTQD: ≤ 0.2; for PTMV: ≤ 0.2; for ATSW: ≤ 0.2.
The figure for DHNC is ≤ 0.2.
The figure for AYGC is ≤ 0.2.
For TRVV, the “one-hybrid fitness for binding parS DNA” value was ≤ 0.2.
For the variant DVYL, the “one-hybrid fitness for binding parS DNA” value was ≤ 0.2.
The figure for NSCG is ≤ 0.2; for VYTC it is ≤ 0.2; for LTTK it is ≤ 0.2.
The same measure for ERTA: ≤ 0.2.
The same measure for SYAY: ≤ 0.2; for CLAC: ≤ 0.2.
Take CMTC: the “one-hybrid fitness for binding parS DNA” value was ≤ 0.2.
As to RVGG, the “one-hybrid fitness for binding parS DNA” value turned out to be 1.01.
As for DRPS, the “one-hybrid fitness for binding parS DNA” value was ≤ 0.2.
NKED: the “one-hybrid fitness for binding parS DNA” value was ≤ 0.2.
The same measure for TVRL: ≤ 0.2.
